Screen size: about 48,000 compounds; about 450 (0.94%) were called active. Not shown: some 19% with an inconclusive outcome. Calls come from the whole dose curve; as a rule, active = well fitted inhibition curve with a large enough effect; inconclusive = small, poorly fitted or top-dose-only effect; inactive = no such curve, though single readings can be large or run the other way. The list shows a part of the results.
test: Primary qHTS for Identification of Small Molecule Inhibitors of Huntingtin Promoter Activity; settings: HEK293 HTT promoter firefly luciferase reporter (activity 0% = vehicle and -100% = no light), 24 h; series mostly up to 57.5 µM; activity change, negative = inhibition: at the top concentration; note: nearly all actives have a fitted effect of over 50% in size
Outline: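 Firefly luciferase signal from promoter-reporter HEK293 cells was scaled between vehicle (0%) and zero RLU (-100%). Compounds were tested at final concentrations of up to 57.5 uM over 24 h at 37 degrees C. PTC124 at 50 uM final served as control inhibitor.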

Activity change, negative = inhibition, inactive:
O=C(Nc1cc2c(cc1C(=O)c1ccccc1Cl)OCCO2)c1ccc(Br)cc1 -11.8%
Cc1nc2c(-c3ccccc3)c(C)nn2c(C)c1CCC(=O)NCc1ccccc1Cl -7.77%
Cc1ccc(-n2nnnc2CNC(=O)c2ccccc2S(C)(=O)=O)cc1C -0.0304%
Nc1nc(OCc2ccccc2)c2[nH]cnc2n1 2.04%
FC(F)(F)c1cc(-c2ccccc2)nc2cc(-c3ccc(Br)cc3)nn12 -1.15%
O=C(CCC(=O)OCC(=O)c1ccc(Cl)cc1)Nc1ccc(Oc2ccccc2)cc1 -10.4%
CCCn1cc(S(=O)(=O)c2cc(C)ccc2C)c(=O)c2cc(F)c(N3CCOCC3)cc21 14.9%
CCc1ccc2occ(CC(=O)Nc3c(C(=O)Nc4ccc(C)cc4)oc4ccccc34)c2c1 7.01%
COC(=O)c1c(SCC(=O)Nc2cc(C)cc(C)c2)[nH]c2ccccc2c1=O -23.1%
CCCNc1ncnc2onc(C)c12 -24.5%
Cc1ccc(C(=O)n2nc(C)c(S(=O)(=O)N3CCOCC3)c2C)cc1 -5.66%
CC(C)c1cnc2c(c1SCC(=O)Nc1ccccc1C(F)(F)F)c(=O)n(C)c(=O)n2C -1.04%
COc1ccc(-n2nc(C(=O)Nc3ccccc3OC)c3c4ccccc4n(C)c3c2=O)cc1Cl 0.432%
Cc1ccc(CSc2nc(-c3cccs3)ccc2C#N)cc1 -18.5%
Cc1nnc(SCc2ccc(Cl)cc2)c2cc3occc3n12 -9.03%
Cc1cccc(N2CCN(c3cc(C)nc4c(-c5ccc(Cl)cc5)c(C)nn34)CC2C)c1 (stereo not drawn) -22.1%
Cc1noc(Cn2c(=O)c3ccccc3n(CC(=O)Nc3cccc(Cl)c3C)c2=O)n1 2.49%
COc1ccc(CCN(C)CCCC(C#N)(c2ccc(OC)c(OC)c2)C(C)C)cc1OC (stereo not drawn)
CC(=O)N1CCCc2cc(S(=O)(=O)N(C)CC(=O)Nc3ccc(C)cc3C)ccc21 -5.64%
CC[N+]1(CC)CCC(=C(c2ccccc2)c2ccccc2)C1C (stereo not drawn) 1.39%
N#Cc1nc(/C=C/c2ccc(F)cc2)oc1N1CCN(c2ccccc2)CC1 -12%
O=C(Nc1cccc(NC(=O)c2ccc(Br)o2)c1)c1ccccc1 12.7%
COc1cccc(C2c3c(oc4ccc(C)cc4c3=O)C(=O)N2CCCN2CCOCC2)c1OC (stereo not drawn) -2.96%
Cc1cccc(-c2noc(-c3cccnc3NCc3ccco3)n2)c1 63.8%
CC1=C(CC(=O)O)c2cc(F)ccc2/C1=C\c1ccc(S(C)=O)cc1 (stereo not drawn) 7.92%
CCCn1c2ccccc2c2cnn(CC(=O)N3CCC(C(=O)OCC)CC3)c(=O)c21 -15.2%
Cc1ccc(CNc2nc3ccccc3n3c(C)nnc23)cc1 -9.69%
Cc1ccc(Sc2c(C)nn(C(=O)COc3ccc(F)cc3)c2C)cc1 -12.3%
